Measured values as given in PMC4242493.
This is one part of the list. The list includes weakly bound sequences.

Target: MaxL homodimer (UniProt P61244)
Test: universal protein-binding microarray (PBM)
Conditions: PBS-based mixture, 10 nM His-tagged protein dimer, 2% milk, 200 ng/uL BSA, 50 ng/uL salmon testes DNA, 0.02% TX-100; detection with Alexa 488 anti-His …; high values mean tight binding; most listed sequences are background and not binding sites; double strand, one strand shown

UniProt P61244, sequence (P61244 whole entry): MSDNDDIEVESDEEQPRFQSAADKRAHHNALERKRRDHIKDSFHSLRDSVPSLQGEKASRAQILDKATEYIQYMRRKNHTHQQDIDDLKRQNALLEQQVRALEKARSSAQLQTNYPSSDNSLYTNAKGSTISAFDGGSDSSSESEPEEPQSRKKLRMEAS

Sequence | binding signal (normalized occupancy)
ATGGCCTA | 0.0782
GGAGGGAA | 0.0728
ATAATCAA | 0.0771
ACTCTTCA | 0.0747
AGGTATAC | 0.0784
CCAGGGGC | 0.0697
GACAAAGA | 0.0792
GCTTGTCC | 0.0786
AGTCTCAC | 0.075
AATTTACC | 0.0797
GTCGAATA | 0.0747
ACTAATGC | 0.0717
ATGATTAA | 0.078
AATAGTAA | 0.0776
ACATATGC | 0.0976
AGTAGGAG | 0.0726
CACACATC | 0.0888
CCCTTACG | 0.0713
CACCGACG | 0.0725
GAACACTC | 0.0727
TAACTACA | 0.0782
CCTGTTAG | 0.0795
ATGCAGTA | 0.0766
CAATTGTA | 0.0769
AGGGGGTA | 0.0831

Sequence | binding signal (normalized occupancy)
ACTCCCCA | 0.0815
CGCTACAA | 0.0765
CCGTATCC | 0.0707
GACCAAAC | 0.0713
AAAGTGCT | 0.072
AGCCATCC | 0.0723
CCGCAGGC | 0.0645
CCTCCAGG | 0.0762
GTATGGGA | 0.0804
TGGGGCAA | 0.0763
CAAACGGC | 0.066
AAAACTCC | 0.0714
CGCATGGA | 0.106
AATCATAA | 0.0796
CAGTAGAA | 0.0771
TACGTACA | 0.0764
AGGTACAA | 0.0777
GAGACCAC | 0.0836
ATTGGAAC | 0.076
GAACTATC | 0.0768
CATAACCA | 0.0811
CTGTAGCC | 0.0712
ATGAACTA | 0.0803
CCGTGAGA | 0.0755
CAGGCCTA | 0.0722

Sequence | binding signal (normalized occupancy)
AGGCGTCC | 0.0714
ATTAGACA | 0.0773
ATCGAATA | 0.0828
CAAGATTG | 0.0753
GGCCACAA | 0.0751
AACCACGC | 0.0983
CAACGAGG | 0.0883
AGATACCC | 0.085
CGAAATCG | 0.0731
CACCGGTC | 0.0698
AATCAGTC | 0.075
GGCTATAA | 0.0808
AGCATGAA | 0.0874
CCCAATCA | 0.0801
CAGTCCGG | 0.0701
ACTGTCAT | 0.0825
AGCTGACT | 0.0677
CGACATAG | 0.0786
CCCATTCA | 0.0811
CCAAGAGG | 0.0701
CTCAACAC | 0.0811
AAACCAAC | 0.0716
GAGGTCAA | 0.0778
AACACGAG | 0.11
AGAGCAGA | 0.0696

Sequence | binding signal (normalized occupancy)
GTTGCTGA | 0.0757
TCAACGAA | 0.0702
TCCGTACA | 0.0742
AACTGTAT | 0.0744
CGGTTCCC | 0.0697
ACACTGCA | 0.0769
CACGTCAG | 0.0836
GTCGTTGA | 0.0714
ATCGTAAG | 0.0756
AGTGATTG | 0.0741
CTAAAGAC | 0.0725
AAATTTAT | 0.0783
ACGAGCCT | 0.0744
CGTCACGC | 0.0948
ACAACATC | 0.0778
CGTTCAAC | 0.0743
ATTTTAGG | 0.0733
ACTGTGCG | 0.0774
ACAGTGGT | 0.0722
CAAGGCTA | 0.0744
AGCATGAC | 0.0962
CGTAGGTC | 0.0714
AGATAACA | 0.0751
GATACTTA | 0.0759
ATGGGAAG | 0.0823

Sequence | binding signal (normalized occupancy)
CCCAGAAA | 0.0773
CTTACCTC | 0.0706
AATGCTAT | 0.0758
AGGCTGGG | 0.073
AAGAGCAT | 0.0806
GGGATGTA | 0.0814
AACCGCGT | 0.0785
ACTCTGAA | 0.0737
GCAGTCCC | 0.0748
ATCTCTTG | 0.074
GAGAACAA | 0.0772
CGTGGAAA | 0.0938
AGCCGACA | 0.0757
GTTAAGGA | 0.0723
ACCATATC | 0.0845
CAGTCCCC | 0.0743
CTGACGTC | 0.071
CAACAAGC | 0.078
AGATCGTG | 0.0794
GAGAGCCC | 0.07
CACATAGC | 0.08
AACAAGTC | 0.0745
GATGCAAC | 0.0749
CCAGACAG | 0.07
CATCTATA | 0.0845

Sequence | binding signal (normalized occupancy)
ATTCTTGA | 0.0788
AAGGAAGG | 0.0748
CGATATGA | 0.0772
ACCAGTGC | 0.0699
CTCTCGCC | 0.0733
CTGTACAC | 0.082
CACGTTAC | 0.115
CAACATAG | 0.0774
ACGCCACA | 0.0778
ACCTATCC | 0.0801
ATTCTATA | 0.0851
ACCGAAGG | 0.0658
GCCAGCCC | 0.0659
ATCCGAGA | 0.0742
AAGATGCT | 0.0778
GATGATAC | 0.0803
TAACAAAA | 0.0694
ACTGACAG | 0.0704
CCAAGTCC | 0.0675
CATAAACC | 0.0814
CATGCCGG | 0.0917
AGTTTTTG | 0.0729
CCGCCTCC | 0.0704
ACCGAACT | 0.0672
AGCGCACT | 0.07

Sequence | binding signal (normalized occupancy)
GGGACCAA | 0.0724
ATGTAATC | 0.0877
TAAGACTA | 0.0761
CACGAGAA | 0.0893
CCACCGGC | 0.0644
CACTAACA | 0.0775
CCCGGCAC | 0.0831
TAGTTACA | 0.077
GACCGATC | 0.0744
CCAGAGAG | 0.0693
GACGTTAC | 0.0746
GATGTACC | 0.0806
TGTTCTAA | 0.0775
CACTCTGA | 0.0787
CGTCTTAG | 0.0726
ATTTAACG | 0.0809
CCGCGAAC | 0.0706
TAGCGACA | 0.0738
AACATCCT | 0.0783
AGTTCTTC | 0.0709
ATTTATTG | 0.0781
TCGCAACA | 0.0723
CTGCGGAA | 0.0656
GCTAGCGA | 0.0671
GTAGAGAC | 0.0704

Sequence | binding signal (normalized occupancy)
GTATAGTA | 0.0791
AGGTTCAT | 0.0782
AGTGGATC | 0.0725
GGGATATA | 0.0829
ACAGTCTC | 0.0733
ACCCGGTA | 0.0776
TTTACAAA | 0.0785
CACGATTC | 0.0796
AGACAATG | 0.0826
AGGTAGTG | 0.0808
GATAGCTA | 0.0735
GGGAGTTA | 0.0782
AGGCGCTG | 0.0702
AGGCCCGC | 0.0714
AGACGTTG | 0.0682
GGGTCCCA | 0.0727
ATTAAGAG | 0.0712
AAGCAAAG | 0.0696
GTTATTCA | 0.0786
CAAAACAA | 0.0735
ACATGCGC | 0.109
ATCTCGTA | 0.0765
CACAGGGA | 0.0741
AACGTCCG | 0.0721
GATGTTGC | 0.0781

Sequence | binding signal (normalized occupancy)
GATTCCCA | 0.0755
CAAAACAG | 0.0731
TGCAGGCA | 0.0732
TAACGTGA | 0.0935
CATGTTAG | 0.0923
CCTTACAG | 0.0695
AAGTTTCG | 0.0705
ATGAGGCA | 0.0899
ACTGCCAG | 0.0747
CCGCGTAG | 0.0711
CAAGTTAG | 0.0743
AATACTGC | 0.0763
AAGTGACG | 0.0707
AGACAAGC | 0.0716
AACGCCCC | 0.0758
TCCAATCA | 0.0714
AGTTCGGA | 0.0649
AGACTAAG | 0.0726
AACTTTTG | 0.074
